# According to ChEMBL document CHEMBL5308541, “MAIP: An Open-Source Tool to Enrich High-Throughput Screening Output and Identify Novel, Druglike Molecules with Antimalarial Activity” (ACS Med Chem Lett, 2023):
# The campaign covered roughly 4,800 compounds. About 410 (8.5%) showed an effect of 50% or more. This is one part of the list.
# Tested on: Plasmodium falciparum
# Assay: Confirmatory screen in NF54 pLDH assay, in single point, at 2uM, 72h
# Type: functional, Erythrocyte
# Conditions: timepoint 72 hour
row,Compound,% Inhibition
1,CC(C)CCOc1ccc2[nH]c(-c3cc(N4CCC[C@@H]4CS(C)(=O)=O)ccn3)cc2c1,98%
2,CCCN1CCC(Nc2cc(C)nc3ccccc23)CC1,89%
3,OCCN1CCC(NCCc2cc(Cl)cc(Cl)c2)CC1,30%
4,CC(C)c1ccc(CN2CCC[C@@](O)(CNCCN3CCNCC3)C2=O)cc1,29%
5,Fc1ccc(-n2cc(CNCCC3CCN(c4ccncc4)CC3)cn2)cc1,102%
6,Nc1ccc(Nc2ccc(F)cc2)c2ccncc12,70%
7,CN(CCCn1ccnc1)c1ccnc2cc(Br)ccc12,98%
8,COCCN1CCC[C@@]2(CCN(c3ccnc4cc(Cl)ccc34)C2)C1,101%
9,Cc1cc(N2CCC(N(C)Cc3cc(-c4ccccc4)n[nH]3)CC2)nc(N)n1,52%
10,Cc1ccc(-c2cc(C(=O)NC3CCN(C4CCN(C)CC4)CC3)n[nH]2)cc1C,102%
11,CCN1CCN([C@H]2CCN(c3ccnc4ccncc34)C2)CC1,98%
12,CCN(Cc1[nH]c2ccc(Cl)cc2c1C)CC1CCN(C2CCN(C)CC2)CC1,102%
13,Brc1ccc2[nH]c3c(c2c1)CCCC3NC1CCc2[nH]cnc2C1 (stereo unspecified),104%
14,Cc1ocnc1CNC[C@H](O)c1ccc(Cl)c(Cl)c1,97%
15,C[C@H]1CCCN(CCNC(=O)c2ccc(-c3ccc4c(=O)[nH]ccc4c3)cc2)C1,37%
16,Clc1ccc2[nH]c3c(c2c1)CCCC3NC1CCN(C2CCOC2)CC1 (stereo unspecified),96%
17,c1cncc(-c2ccc(CNC3CCN(Cc4cccs4)CC3)cc2)c1,86%
18,CCOc1ccc2nc(N3CCCN(Cc4c(C)nn(CC)c4C)CC3)nc(C)c2c1,22%
19,COc1ccccc1-c1csc(C2CCN(CC[C@H]3CCCN3C)CC2)n1,19%
20,O=C(Nc1cncnc1N1CCCC1)c1cc(F)cc2[nH]cnc12,-8%
21,Cn1cc(-c2cncc(C(=O)NC3CCN(c4cccc(F)c4)CC3)c2)cn1,0%
22,COCCN1CCC[C@H](CNCc2cnn(-c3ccc4ccccc4c3)c2)C1,13%
23,OC[C@H](CNCc1cc2ccc(F)cc2[nH]1)c1ccccc1Cl,82%
24,Cc1nc(-c2ccccn2)nc(NC2CCN(CC(F)F)CC2)c1C,24%
25,CN(C)C1CCN(CCN[C@H]2CCc3ccc(F)cc32)CC1,97%
26,O[C@@]1(c2c[nH]nn2)CCN(c2ccnc3cc(Cl)ccc23)C1,98%

row,Compound,% Inhibition
1,NCCCCc1c(-c2cccnc2)[nH]c2c(Cl)cc(Cl)cc12,75%
2,CCOc1cc(C(=O)NC2CCN(CC3CCCC3)CC2)cc(-c2ccccc2)c1OC,99%
3,Fc1cccc(Cl)c1CN1CCC(NC[C@H]2CCCOC2)CC1,21%
4,Cc1ccc(-c2nnc(Nc3ccccc3)c3ccccc23)cc1CN1C(=O)c2ccccc2C1=O,27%
5,COc1cc2nc(NCC3(N4CCN(C)CC4)CCCC3)cc(C)c2cc1OC,103%
6,CN1CCC(Oc2ccc(NC(=O)c3cn4ccnc4s3)cn2)CC1,92%
7,c1ccc2c(CNCCC3CCN(c4ccncc4)CC3)csc2c1,95%
8,CN1CCC(N(Cc2ccccc2)C(=O)c2cc3cnccc3[nH]2)CC1,58%
9,CN(C[C@H](O)COc1ccccc1CN1CCC(c2ccncc2)CC1)C1CCCCC1,84%
10,Cc1nc2ccc(CNC3CCN(c4ccc(F)c(F)c4)CC3)cc2[nH]1,64%
11,COc1ccc(-c2cc(C(=O)Nc3ccc(N4CCN5CCCC5C4)cc3)c3c(C)noc3n2)cc1 (stereo unspecified),36%
12,CCNc1cc(C)nc(NCCNC(=O)Nc2cc(F)cc(F)c2)n1,92%
13,CCN(C)CCNc1cc(C)nc(C)n1,23%
14,Nc1ccnc(-c2cccc3[nH]ccc23)c1,0%
15,O=C(Nc1cnc2c(c1)COCC2)c1cc2c(OC(F)(F)F)cccc2[nH]1,102%
16,Cc1cc(O)c(Cl)cc1-c1ccc2nccc(N)c2c1,100%
17,Cc1cnccc1NCCNCc1cccc(OCCCCN2CCOCC2)c1,95%
18,COc1ccc2cc(-c3cc(N)ccn3)[nH]c2c1,89%
19,Cc1ccn2cc(-c3ccc(N4CCC(NCc5cccnc5)CC4)cc3)nc2c1,102%
20,CCc1oc2ccccc2c1CNC[C@H](O)c1ccc(Cl)cc1,99%
21,O=C(NCC1CC1)c1cc2c(OCc3ccc(Cl)cc3)cccc2[nH]1,53%
22,CNc1nc(N2CCN(CC(=O)NC3CCCCC3)CC2)nc2ccccc12,26%
23,Cc1ccc2nc(CCCNC3CCN(c4cc(C)nc(N)n4)CC3)oc2c1,59%
24,Cc1ccc2[nH]cc(-c3cc(N4CCOCC4)nc(N)n3)c2c1,55%
25,C[C@@H](CNC1CCN(C2CCN(C)CC2)CC1)c1cccc(Cl)c1,103%
26,CCc1cc(Nc2ccc(N3CCOCC3)nc2)nc(-c2ccncc2)n1,42%

row,Compound,% Inhibition
1,Cc1cccc(N2CCC(NCc3cc(C)cc(CN4CCN(C)CC4)c3C)CC2)c1,84%
2,COC(=O)c1cn(CCNc2ccnc3cc(Cl)ccc23)cc2c(O)nnc1-2,103%
3,CCOc1ccc2nc(CN(CC)CC3CCN(C4CCN(C)CC4)CC3)ccc2c1,99%
4,c1ccc(CN2CCC(CCNC[C@@H]3CCCN4CCCC[C@H]34)CC2)cc1,63%
5,COc1ccnc(NCCCc2nc(-c3ccncc3)cs2)n1,64%
6,O=C(CCc1nnc(-c2ccc(-c3ccccc3)cc2)o1)NC[C@@H]1CCCN2CCCC[C@H]12,86%
7,CN(C)C1(CNc2nc(C(F)(F)F)nc3cc(F)ccc23)CCCCCC1,57%
8,NCC1(O)CCN(c2ccnc3cc(F)c(Cl)cc23)CC1,97%
9,CCN1CCC[C@H](CNCc2cn(-c3ccccc3)nc2C(C)C)C1,17%
10,Cc1cc(NC[C@H]2CN(CC(C)C)CCO2)c2ccccc2n1,28%
11,CN(C)CCN1CCC(NC2CCC(O)(c3cccc(Cl)c3)CC2)CC1 (stereo unspecified),33%
12,OC1(c2ccc(Cl)cc2)CCN(C[C@@H]2CCCN3CCCC[C@H]23)CC1,88%
13,Cc1ccccc1-c1cccc(N2CCC(NCC3CCNCC3)CC2)c1,100%
14,Cc1cc(F)ccc1N1CCC(NCCCNc2cccnc2)CC1,-2%
15,c1ccc(-c2ccnc(C3CCN(CC45CNCC4C5)CC3)n2)cc1 (stereo unspecified),96%
16,Nc1nc(NCC2CCN(CCc3ccccc3)CC2)cc([C@H]2C[C@@H](N)C2)n1,26%
17,CN([C@@H](c1ccccc1)c1ccccc1Br)S(=O)(=O)c1c[nH]c2ncccc12,67%
18,O[C@@H](CNCc1cc2cc(Cl)c(Cl)cc2[nH]1)c1ccc(F)cc1,80%
19,CCN1CCN(c2ccc(CNCc3cccc(O)c3)cc2F)CC1,85%
20,FC(F)(F)c1ccc(-c2c(-c3ccccc3)ncn2Cc2ncn[nH]2)cc1,7%
21,CN1CCC(N2CCC(NC(=O)c3ccc(S(=O)(=O)N(C)C4CCCCC4)cc3)CC2)CC1,39%
22,c1ccc(-c2nc3c(c(NCCNc4ncccn4)n2)CCC3)nc1,23%
23,COc1ccc(-c2cncc(C(=O)NCC3CCN(CCN(C)C)CC3)c2)cc1,96%
24,Cc1cccc(Nc2ccnc(Nc3ccc(N4CCN(C)CC4)cc3)n2)c1,99%
25,CCOc1cccc(N2CCN(C(=O)c3cc(-c4ccc(F)cc4)[nH]n3)CC2)n1,-1%
26,COCCNc1nc(N[C@@H](C)c2ccccc2)c2ccccc2n1,92%

row,Compound,% Inhibition
1,Cc1ccc2[nH]c(CNC[C@@H](CO)C3CCC3)cc2c1C,80%
2,O=C(NCCN1CCCCC1)c1cccc(-c2cnc3ccc(F)cn23)c1,21%
3,O=C(CC1CCNCC1F)Nc1ccc(Oc2ccnc3ccccc23)cc1 (stereo unspecified),12%
4,Cc1cc(NC[C@H](O)COc2ccc(F)cc2)nc2ccccc12,81%
5,c1ccc(CCC23CN(Cc4ccccn4)CC2CN(Cc2ccns2)C3)cc1 (stereo unspecified),88%
6,Cc1cc(NCCCN2CCC[C@H](O)C2)c2cc(F)ccc2n1,31%
7,Cc1ccccc1-c1cccc(CNCCCN2CCC[C@H](O)C2)c1,17%
8,COCCN1CC[C@H](CNC2CCN(c3ncc4ccc(F)cc4n3)CC2)C1,71%
9,O[C@H](COc1ccccc1CNCc1cc(-c2ccccc2)[nH]n1)CN1CCCCC1,103%
10,OC1CN(Cc2cnc(C3CCCCC3)nc2)CCC1Nc1ncccn1 (stereo unspecified),4%
11,Cc1ccc2[nH]c(-c3cc4n(n3)CCN(c3ccnc(N)n3)C4)nc2c1C,97%
12,CNc1nc(N[C@H]2CCCN(Cc3ccc(Cl)cc3)C2)nc2c1CCC2,100%
13,CC1(N2CCC2)CCC(NC[C@H]2CCN(Cc3ccccc3)C2)CC1 (stereo partly specified),66%
14,CN1C(C)(C)CC(NC(=O)c2ccc(-c3cc(-c4cccc(C(F)(F)F)c4)n[nH]3)cc2)CC1(C)C,47%
15,O=C(NCc1ccc(OC(F)(F)F)cc1)N(CCN1CCCC1)[C@H]1CCCNC1,33%
16,O=C(NCc1ccc(N2CCNCC2)c(F)c1)c1ccc(-c2noc(C(F)(F)F)n2)cc1,54%
17,CCN1CCC[C@H](CN(C)C2CCN(c3ccc(NC(=O)c4ccc(OC)cc4)cc3)CC2)C1,0%
18,Cc1ccccc1CN1CCC(CNc2c3c(nc4ccccc24)CCC3)CC1,103%
19,CC(CNc1nc(NCC(C)N2CCOCC2)c2cc(Cl)ccc2n1)N1CCOCC1 (stereo unspecified),102%
20,CN1CCN(CC2CCN(c3ccnc4ccccc34)CC2)CC1,103%
21,Cc1ccc2c(-c3ccccc3CN3CCNCC3)cccc2n1,45%
22,CCc1ccc2ncnc(NCCCN3CCN(CCO)CC3)c2c1,85%
23,Cn1cncc1[C@@H]1CNC[C@H]1CNC(=O)c1ccccc1NC1CCCCC1,73%
